# Test results published in patent publication US20260184782A1.
# Residue numbers refer to the chain shown, from its start.
# T1: TIGIT (UniProt Q495A1)
# T1 sequence (looked up): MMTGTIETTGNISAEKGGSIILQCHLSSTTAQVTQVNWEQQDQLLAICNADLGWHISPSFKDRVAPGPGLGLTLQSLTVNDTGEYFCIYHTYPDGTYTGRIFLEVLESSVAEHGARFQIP
# B1: TIGIT-30-50 VHH-Fc (Fc fusion)
# chain: EVQLVESGGGLVQAGGSLRLSCAASGRSFSNYVMGWFRQAPGKERERVATITSGGLTVYADSVKGRFTISADNAKNTVYLQMNSLKPEDTAVYYCALYRVNWGQGTQVTVSSGGGGS[in this place human IgG1 Fc with C220S (EU numbers)]
# B2: TIGIT-30-35 VHH-Fc (Fc fusion)
# chain: EVQLVESGGGLVQAGGSLRLSCAASGNIDRLYAMGWFRQAPGKEREGISLITSDDGSTYYADSVKGRFTISADNAKNTVYLQMNSLKPEDTAVYYCASSGPADARNGERWAWGQGTQVTVSSGGGGS[in this place human IgG1 Fc with C220S (EU numbers)]
# B3: TIGIT-30-48 VHH-Fc (Fc fusion)
# chain: EVQLVESGGGLVQAGGSLRLSCAASGFPVNRYSMGWFRQAPGKERELVSAIGWSGASTYYADSVKGRFTISADNAKNTVYLQMNSLKPEDTAVYYCAADFWLARLRVADDYDWGQGTQVTVSSGGGGS[in this place human IgG1 Fc with C220S (EU numbers)]
# B4: TIGIT-29-17 VHH-Fc (Fc fusion)
# chain: EVQLVESGGGLVQAGGSLRLSCAASGSTLSIYAMGWFRQAPGKERELVATISSGGGSTYYADSVKGRFTISADNAKNTVYLQMNSLKPEDTAVYYCAAGSVYGRNYWGQGTQVTVSSGGGGS[in this place human IgG1 Fc with C220S (EU numbers)]
# B5: TIGIT-31-40 (VHH-Fc) (Fc fusion)
# chain: EVQLVESGGGLVQPGGSLRLSCAASGSTLRDYVMGWFRQAPGKERELVSSISRSGTTMFADSVKGRFTIIADNSKNTAYLLMNSLKPQDTAVYYCAAVFSRGLLTCGQGTLVTVSSGGGGS[in this place human IgG1 Fc with C220S (EU numbers)]
# B6: TIGIT-29-19 VHH-Fc (Fc fusion)
# chain: EVQLVESGGGLVQAGGSLRLSCAASGRTFSSYAMGWFRQAPGKEREFVATISGSFGRTYYADSVKGRFTISADNAKNTVYLQMNSLKPEDTAVYYCAAGAWTIYEYDYWGQGTQVTVSSGGGGS[in this place human IgG1 Fc with C220S (EU numbers)]
# B7: TIGIT-29-41 VHH-Fc (Fc fusion)
# chain: EVQLVESGGGLVQAGGSLRLSCAASGRTFSTNAMGWFRQAPGKEREWVTAITTSGGNTYYADSVKGRFTISADNAKNTVYLQMNSLKPEDTAVYYCAARDETYGTYDYWGQGTQVTVSSGGGGS[in this place human IgG1 Fc with C220S (EU numbers)]
# B8: TIGIT-31-04 (VHH-Fc) (Fc fusion)
# chain: EVQLVESGGGLVQPGGSLRLSCAASGFPVNRYWMGWFRQAPGKERELVATITSGGSTNYADSVKGRFTISADNSKNTAYLQMNSLKPEDTAVYYCAADVWYGSTWRNWGQGTLVTVSSGGGGS[in this place human IgG1 Fc with C220S (EU numbers)]
# B9: TIGIT-31-12 (VHH-Fc) (Fc fusion)
# chain: B8 chain with P28T, V29F, N30S, L47A, T50S, N58Y
# B10: TIGIT-29-32 VHH-Fc (Fc fusion)
# chain: EVQLVESGGGLVQAGGSLRLSCAASGSTFDSYAMGWFRQAPGKEREGVAAITTSGSSTYYADSVKGRFTISADNAKNTVYLQMNSLKPEDTAVYYCAARGGVRSGSPGTYNYWGQGTQVTVSSGGGGS[in this place human IgG1 Fc with C220S (EU numbers)]
# B11: TIGIT-29-43 VHH-Fc (Fc fusion)
# chain: EVQLVESGGGLVQAGGSLRLSCAASGRTFDSYAMGWFRQAPGKEREWVSAISWSGSSTYYADSVKGRFTISADNAKNTVYLQMNSLKPEDTAVYYCAARGGYGRYDSWGQGTQVTVTSGGGGS[in this place human IgG1 Fc with C220S (EU numbers)]
# B12: TIGIT-31-43 (VHH-Fc) (Fc fusion)
# chain: EVQLVESGGGLVQPGGSLRLSCAASGGTFSAFPMGWFRQAPGKERELVAAISSGGTTYYADSVKGRFTISADNSKNTAYLQMNSLKPEDTAVYYCAAQGGVLSAWDWGQGTLLTVSSGGGGS[in this place human IgG1 Fc with C220S (EU numbers)]
# B13: TIGIT-31-37 (VHH-Fc) (Fc fusion)
# chain: EVQLVESGGGLVQPGGSLRLSCAASGSIFSINSMGWFRQAPGKEREFVAALSWIIGSTYYADSVKGRFTISADNSKNTAYLQMNSLKPEDTAVYYCAVNGRWRSWSSQRDWGQGTLVTVSSGGGGS[in this place human IgG1 Fc with C220S (EU numbers)]
# B14: TIGIT-29-38 VHH-Fc (Fc fusion)
# chain: EVQLVESGGGLVQAGGSLRLSCAASGSTFSSYAMGWFRQAPGKEREFVSAISRNGASTSYADSVKGRFTISADNAKNTVYLQMNSLKPEDTAVYYCAAAGTRFDYWGQGTQVTVSSGGGGS[in this place human IgG1 Fc with C220S (EU numbers)]
# B15: TIGIT-31-05 (VHH-Fc) (Fc fusion)
# chain: EVQLVESGGGLVQPGGSLRLSCAASGRTFGDYIMGWFRQAPGKEREFVATISRGGGSTYVDSVKGRFTISADNSKNTAYLQMNSLKPEDTAVYYCAAVFSRGPLTWGQGTLVTVSSGGGGS[in this place human IgG1 Fc with C220S (EU numbers)]
# B16: TIGIT-31-49 (VHH-Fc) (Fc fusion)
# chain: EVQLVESGGGLVQPGGSLRLSCAASGFDFSVSWMGWFRQAPGKERELVARISSGGELPYYADSVKGRFTISADNSKNTAYLQMNSLKPKHTAVYYCAARPNTRPGSMWGQGTLVTVSSGGGGS[in this place human IgG1 Fc with C220S (EU numbers)]
# B17: TIGIT-31-53 (VHH-Fc) (Fc fusion)
# chain: EVQLVESGGGLVQPGGSLRLSCAASGLTISTYNMGWFRQAPGKERELVSAIGWSGASTYYADSVKGRFTISADNSKNTAYLQMNSLKPEDTAVYYCAAFRGRMYDWGQGTLVTVSSGGGGS[in this place human IgG1 Fc with C220S (EU numbers)]
# B18: TIGIT-30-42 VHH-Fc (Fc fusion)
# chain: EVQLVESGGGLVQAGGSLRLSCAASGITITTEVMGWFRQAPGKEREYVAAIHWNGDSTAYADSVKGRFTISADNAKNTVYLQMNSLKPEDTAVYYCAQVSQWRAWGQGTQVTVSSGGGGS[in this place human IgG1 Fc with C220S (EU numbers)]
# Target: T1, TIGIT
# Assay: ELISA
row,ELISA,Binder
1,5.6,B1
2,3.3,B2
3,3.6,B3
4,3.2,B4
5,9.4,B5
6,9,B6
7,7.7,B7
8,3.2,B8
9,5.3,B9
10,3.7,B10
11,4.8,B11
12,4.9,B12
13,5.7,B13
14,3.4,B14
15,3.8,B15
16,7.3,B16
17,3.2,B17
18,6.3,B18
